Test results reported in the RNAGym collection of RNA variant scans (doi:10.7554/elife.90254).
The source gives no read counts; variants with many changes may rest on few reads.

B1: LINE1-full (parent)
chain: UACGUAGGUGGUUUUCCCCUGAUAGUGCUAAGGGGGCCUGGAAGUUUGGACUGGGCAGAGCUCAACACAGCGUGGCAAAGUGGCUGUGGCUAGACUGCCUCUCUGGAUUCCUCGUCACUCAGCAGGGCAUCUCUGAGAGAAAUGCC

Variants of: B1
Assay: self-cleavage, relative activity (ratio to wild type); higher = more cleavage; in vitro, sequencing; the parent is a self-cleaving ribozyme
Variant UACGUAGGUGGUUUUCCCCUGAUAGUGCUAAGGGGGCCUGGAAGUUAGGACUGGGCAGAGCUCAACACAGCGUGGCAAAGUGGCUGCGACUAGACUGCCUCUCUGGAUUCCUCGUCACUCAGCAGGGCAUCUCUGAGAGAAAUGCC has a self-cleavage of 0.01.
Variant UACGUAGGUGGUUUUCCCCUGAUAGUGCUAAGGGGGCCUGGAAGUUUGGACUGGGCAGAGCUCAACACAGCGUGGCAGAGUGGCUGUGGCUAGACUGCCUCUCUGGAUUCCUCGUCACUCAUCAUGGCAUCUCUGAGAGAAACGCC has a self-cleavage of 1.42.
With UACGUAGGUGGUUUUCCCCUGAUAGUGUUAAGGGGGCCUGGAAGUUUGGACUGGGCAGAGCUCAACACAGCGUGGCAAAGUGGCAGUGGCUAGACUGCCUCUCUGGUUUCCUCGUCACUCAGCAGGGCAUCUCUGAGAGAAAUGCC the self-cleavage was 0.04.
With UACGUAGGUGGUUUUCCCCUGAUAGUGCUAAGGGGGCCUGGAAGUUUGGACUGGGCAGGGCUCAACACAGCGUGGCAAAGUGGCUGUGGCUAGACUGCCUCUCUGGACUCCUCGCCACUCAGCAGGGCAUCUCUGAGAGAAAUGCC the self-cleavage was 0.
UACGUAGGUGGUUUUCCCCUGAUAGUGCUAAGGGGGCCCGGAAGUCUGGACUGGGCAGAGCUCAACACAGCGUGGCAAAGUGGCUGUGGCUAGACUGCCUCUCUGGAUUCCUCGUCACUCAGCAGGGCAUCUCUGAGAGAAACGCC showed a self-cleavage of 1.61.
Variant UACGUAGGUGGUUUUCCCCUGAUAGUGCUGAGGGGGCCUGGAAGUUUGGACUGGGCAGAGCUCAACACAGCGUGGCUAAGUGGCUGUGGCUAGACUGCCUCUCUGGAUUCCUCGCCACUCAGCAGGGCAUCUCUGAGAGAAAUGCC has a self-cleavage of 1.79.
UACGUAGGUGGUUUUCCCCUGAUAGUGCUAAGGGAGCCUGGAAGUUUGGACCGGGCAGAGCUCAACACAGCGUGGCAAAGUGGCUGUGGCUAGACUGCCUCUCUGGAUUCCUCAUCACUCAGCAGGGCAUCUCUGAGAGAAACGCC gave a self-cleavage of 0.72.
Work on UACGUAGGUGGUUUUCCCCUGAUAGCGCUAAGGGGGCCUGGACGUUUGGACUGGGCAGAGCUUAACACAGCGUGGCAAAGUGGCUGUGGCUAGACUGCCUCUCUGGAUUCCUCGUCACUCAGCAGGGCAUCUCUGAGGGAAAUGCC yielded a self-cleavage of 0.55.
Work on UACGUAGGUGGUUUUCCCCUGAUAGCGCUAAGGGGGCCUGGAAGUUUGGACUGGGCAGAGCUCAACACAGCGUGGCAAAGUGGCCGUGGCUAGACUGCCUCUCUGGAUUCCUCGUCACUCAGCAGGGCAUCUCUGAGGGAAAUGCC yielded a self-cleavage of 0.28.
With UACGUAGGUGGUUCUCCCCUGGUAGUGCUAAGGGGGCCUGGAGGUUUGGACUGGGCAGAGCUCAACACAGCGAGGCAAAGUGGCUGUGGCUAGACUGCCUCUCUGGAUUCCUCGUCACUCAGCAGGGCAUCUCUGAGAGAAAUGCC the self-cleavage was 1.26.
In the case of UACGUAGGUGGUUUUCCCCUGAUAGUGCCAAGGGGGCCUGGAAGUCUGGACUGGGCAGAGCUCAACACAGCGUGGCAAAGUGGCCGUGGCUAGACUGCCUCUCUGGAUAGCUCGUCACUCAGCAGGGCAUCUCUGUGAGAAAUGCC, the self-cleavage is reported as 0.42.
In the case of UACGUAGGUGGUUUUCCCCUGAUAGUGCUUAGGGGGCCUGGAAGUUUGGACUGGGCAGAGCUCAACACAGCGUGGCAAAGUGGCUGUGGCUAGACUGCCUCUCUGGAUUCCCCGUCACUCAGCAGGGCAUCCCUGAGAGAAAUGCC, the self-cleavage is reported as 1.18.
Work on UACGUAGGUGGUUUUCCCCUGAUAGUGCUAAGGUGGCCUGGAAGUCUGGACUGGGCAGAGCUCAACACAGCGUGGCAAAGUGGCUGUGGCUAGACUGCCUCUCUGGAUUCCUCGUCACUCAGCGGGGCAUCUCUGAGAGAAAUGCC yielded a self-cleavage of 2.04.
Work on UACGUAGGUGGUUUUCCCCUGAUAGUGCUAAGGGGGCCUGGAAGUUUGGACUGGGCAGAGCUCAACACAGCGUGGCAAAGUGGCUGUGGCUAGACAGCCUCUCUGGAUUCCUCGCCACUCAGCAGAGCAUCUCUGAGGGAAAUGCC yielded a self-cleavage of 0.07.
In the case of UACGUAGGUGGUUUUCCCCUGAUAGUGCUAAUGGGGCCUGGAAGUUUGGACUGGGCAGAACUCAACACAGCGUGGCAAAGUGGCUGUGGCUAGACUGCCUCUCUGGAUUCCUCGUCACUCAGGAGGGCAUCUCUGAGAGAAAUGCC, the self-cleavage is reported as 0.06.
Variant CACGUAGGUGGUUUUCCCCUGAUAGUGCUAAGGGGGCCUGGAAGUUUGGACUGGGCAGAGCUCAACACAGCGUGGCAAAGUGGCUGUGGCUAGACUGCCUCUCCGGAUUCCUCGUCACUCAGCAGGGCACCUCUGAGAGAAAUGCC has a self-cleavage of 0.5.
For UACGUAGGUGGUUUUCCCCUGAUAGUGCUAAGUGGGCCUGGAAGUUUGGACUGGGCUGAGCUCAACACAGCGUGGCAGAGUGGCUGUGGCUAGACUGCCUCCCUGGAUUCCUCGUCACUCAGCAGGGCAUCUCUGAGAGAAAUGCC, the self-cleavage was 0.08.
UACGUAGGUGGUUUUCCCCUGAUAGUGCUAAGGGGGCCUGGAAGUUUGGACUGGGCAGAGCUCAGCACAGCGUGGCAUAGUGGCUGUGGCUAGACUGCCUCUCUGGAUUCCUCGUCACUCAGCAGGGCAUCACUGAGAGAAAUGCC showed a self-cleavage of 0.03.
UACGUAGGCGGUUUUCCCCUGAUAGUGCUAAGGGGGCCUGGAAGUUUGGACUGGGCAGAGCUCAACACAGCGUGGCAAAGUGGCCGUGGCUAGAUUGCCUCUCUGGAUUCCUCGUCACUCAGCAGGGCAUCUCUGAGAGAAAUGCC showed a self-cleavage of 0.22.
UACGUAGGUGGUUUUCCCCUGAUAGUGCUACGGGGGCCUGGUAGUUUGGACUGGGCAGAGCUCAACACAGCGUGGCAAAGUGGCUGAGGCUAGACUGCCUCUCUGGGUUCCUCGUCACUCAGCAGGGCAUCUCUGAGAGGAAUGCC gave a self-cleavage of 0.05.
Variant UACGUAGGUGGUUUUCCCCUGAUAGUACUAAGGGGGCCUGGAGGUUCGGACUGGGCAGAGCUCAACACAGCGUGGCAAAGUGGCUGUGGCUAGACUGCCUCUCUGGAUUCCUCGUCACUCGGCAGGGCAUCUCUGAGAGAAAUGCC has a self-cleavage of 2.6.
Variant UACGUAGGUGGUUUUCCCCUGAUAGUGCUAAGGGGGCCUGGAAGUUUGAACUGGGCAGAGCUCGACACAGCGUGGCAAAGUGGCUGUGGCUAGACUGCCACUCUGGAUUCCUCGUCACUCAGCAGGGCAUCUCUGAGAGAAAUGCC has a self-cleavage of 0.17.
With UCCGUAGGUGGUUUUCCCCUGAUAGUGCUGAGGGGGCCUGGAAGUUUGGACUGGGCAGAGCUCAACACAGCGCGGCAAAGUGGCUGUGGCUAGACUGCCUCUCUGGAUUCCUCGUCACUCAGCAGGGCAUCUCUGAGAGAAUUGCC the self-cleavage was 2.16.
Work on UACGUAGGUAGUUUUCCCCUGACAGUGCUAAGGGGGCCUGGAAGUUUGGACUGGGCAGAGCUCAAAACAGCGUGGCAAAGUGGCUGUGGCUAGACUGCCUCUCUGGAUUCCUCGUCACUCAGCAGGGCAUCUCUGAGAGAAAUGCC yielded a self-cleavage of 0.13.
In the case of UACGUAGGUGGUUUUCCCCUGAUAGUGCUAAGGGGGCCUGGAAGUUUGGACUGGGCAGAGCUCAACACAGCGCGGCAAAGUGGCUGUGGCUAGACUGCCUCUCUGGAUUCCUCGUCACUCAGCAGGGCGUCUCUGAGAGAAACGCC, the self-cleavage is reported as 2.3.
In the case of UACGUAGGUGGUUUUCCCCUGAUAGUGCCAAGGGGGCCUGGAAGUUUGGACUGGGCAGAGCUCAACACAGCGUGGCUAAGUGGCCGUGGCUAGACUGCCUCUCUGGAUUCCUCGUCACUCAACAGGGCAUCUCUGAGAGGAAUGCC, the self-cleavage is reported as 0.12.
UACGUAGGUGGUCUUCCCCCGAUAGUGCUAAGGGGGCCUGGAAGUUUGGACUGGGCAGAGCUCAACACAGCGUGGCAAGGUGGCUGUGGCUAGACUGCCUCUCUGGAUUCCACGUCACUCAGCAGGGCAUCUCUGAGAGGAAUGCC gave a self-cleavage of 0.
In the case of UACGUAGGUGGUUUUCCCCUGAUAGUGCUAAGGGGGCCUGGAAGUUUGGACUGGGCAGAGCCCAACACAGCGUGGCAAGGCGGCUGUGGCUAGACUGCCUCUCUGGAUUCCUCGUCACUCAGCAGGGCAUCUCUGAGAGAAAUGCC, the self-cleavage is reported as 0.
Work on UACGUAGGUGGUUUUCCCCUGAUAGUGCUAAGGGGGCCUGGAAGUUUGGACUGGGCAGAGCUCAACACAGCGUGGCAAGGUGGCUGUGGCUAGACUGCCUCUCAGGGUUCCUCGUCACUCAGCAGGGCAUCUCUGAGAGAAAUGCC yielded a self-cleavage of 1.02.
Variant UACGUAGGUGGUUUUCCCCUGAUAGUGCUAAGGGGGCCUGGAAGUUUGGACUGGGCAGAGCUCAACACAGCGUGGCAAAGUGGCUGUGGCUAGACUGCCUCUCUGGGUUCCUCGUCACUCAGCAGGGCUUCUCCGAGAGAAAUGCC has a self-cleavage of 0.5.
UACGUAGGUGGUUUUCCCCUGAUAGUGCUAAGGGGGCCUGGAAGUUUGGACUGGGCAGAGCUCAACACAGCGUGGCAGAGUGGCUGUGGCUAGACUGCCUCUCUGGAUUCCCCGUCACUCAGCAGGGCUUCUCUGAGAGAAAUGCC gave a self-cleavage of 1.42.
UACGUAGGUGGUUUUCCCCUGAUAGUUCUAAGGGGGCCUGGAGGUUUGGACUGGGCAGAGCCCAACACAGCGUGGCAAAGUGGCUGUGGCUAGACUGCCCCUCUGGAUUCCUCGUCACUCAGCUGGGCAUCUCUGAGAGAAAUGCC gave a self-cleavage of 0.34.
With UACGUAGGUGGUUUUCCCCUGAUAGUGCUAAGGGGGCCUGGGAGUUUGGACUGGGCAGAGCUCAACACAGCGUAGCAAAGUGGCUGUGGCUAGACUGCCUCUCUGGAUUCCUCGUCACUCAGCAGGGCAUCACUGAGAGAAAUGCC the self-cleavage was 0.55.
In the case of UACGUAGGUGGUUUUCCCCUGAAAGUGCUAAGGGGGCCUGGAAGUUUGGGCUGGGCAGAGCUCAACACAGCGUGGCAAAGUGGCUGUGGCUAGACUGCCUCUCUGGACUCCUCGUCACUCAGCAGGGCAUCUCUGAGAGAAAUGCC, the self-cleavage is reported as 1.84.
UACGUAGGUGGUUUUCCCCUGAUAGUGCUAAGGGGGCCUGGAAGUUUGGACUGGGCAGAGCCCAACACAGCGUGGCAAAGUGGCUGUGGCUAGACGGCCUCUCUGGAUUCCUCGCCACUCAGCAGGGCAUCUCUGAGAGUAAUGCC showed a self-cleavage of 0.
With UACGUAGGUGGUCCUCCCCUGAUAGUGCUAAGGGGGCCUGGAAGUUUGAACUGGGCAGAGCUCAACACAGCGAGGCAGAGUGGCUGUGGCUAGACUGCCUCUCUGGAUUCCUCGUCACUCAGCUGGGCAUCUCUGAGAGAAAUGCC the self-cleavage was 0.36.
For UACGUAGGUGGUUUUCCCCUGAUAGUGCUAAGGGGGCCAGGAAGUUUGGACUGGGCAGAGCCCAACACAGCGUGGCAAAGUGGCUGUGGCUAGACUGCCACUCUGGAUUCCUCGUCACUCAGCAGGGCAUCUCUGAGAGAAAUGCC, the self-cleavage was 0.06.
With UACGUAGGUGGUUUUCCCCUGAUAGCGCUAAGGGGGCCUGGAAGCUUGGACAGGGCAGAGCUCAACACAGCGUGGCAAGGUGGCUGUGGCUAGACUGCCUCUCUGGAUUCCUCGUCACUCAGCAGGGCAUCUCUGAGAGAAAUGCC the self-cleavage was 0.92.
UACGUAGGUGGUUUUCCCCUGAUAGUGCUAAGGGGUCCUGGAAGUUUGGACUGAGCAGAGCUCAACACAGCGUGGCAAAGUGGCUGUGGCUAGACUGCCUCUCUGGAUUCCUCGUCACUCAGCGGGGCAUCUCCGAGAGAAAUGCC showed a self-cleavage of 0.07.
